Test results: PubChem BioAssay AID493208 (National Center for Advancing Translational Sciences (NCATS), 2011)
Among all 44,000 compounds or so, about 340 (0.77%) were called active. About 5% were inconclusive and are not listed. The call rests on the fitted dose curve; in most records, active means well fitted inhibition curve with a large enough effect; inconclusive means small, poorly fitted or top-dose-only effect; inactive means flat fitted curve, though single readings scatter. Some of the results follow.

Test: Acumen qHTS Assay for Inhibitors of the mTORC1 Signaling Pathway in MEF (Tsc2-/-, p53-/-) Cells: Sytravon;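 further: plate controls were DMSO for no effect and rapamycin for full effect; nearly all actives have a fitted effect of over 50% in size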
Settings: phospho-rpS6 immunofluorescence/PI, 24 h; series mostly up to 38.3 µM; activity change, negative = inhibition: at the top concentration
Summary of the method: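 Compounds act on Tsc2-/-, p53-/- fibroblasts carrying an empty vector for 24 h before fixation and dual staining for phospho-S6 and DNA (propidium iodide). Values are percentages of cells above a rapamycin-defined pS6/PI threshold.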

Activity change, negative = inhibition, inactive:
O=C(NCc1ccccc1)N1CCc2c(sc3c2CCCC3)C1c1ccccc1 (configuration not stated) 1.49%
Cc1cc(C)cc(NC(=O)CCS(=O)(=O)c2ccc3c(c2)oc(=O)n3C)c1 7.35%
Cc1ccc(Cl)cc1NC(=O)N1CCc2cc(S(=O)(=O)N3CCC(C)CC3)ccc21 -3.86%
O=C(Nc1nnc2n1CCS2)c1ccccc1 1.44%
Cc1cccc(-n2ncc3c(N4CCN(CCO)CC4)ncnc32)c1 7.38%
CCOc1ccc(C(=O)Nc2ccc3nc(SCC(=O)N(C)c4ccccc4)sc3c2)cc1 -10.9%
CCOC(=O)c1cc(-c2ccc(OC)cc2)n(CCC(=O)Nc2ccc(OC)cc2OC)c1C -12.1%
CCOc1ccc(/C=C/c2nc3ccccc3n2S(=O)(=O)c2cccc(Cl)c2)cc1 -0.999%
COc1ccccc1CNC(=O)c1ccc(Nc2nc3ccccc3n3nnnc23)cc1 -24%
COc1cccc(-c2nc(SCC(=O)NC3CCCC3)c(-c3ccc(F)cc3)[nH]2)c1 2.77%
CC(C)c1ccc(/C=C(\C#N)c2nc(-c3cc4ccccc4oc3=O)cs2)cc1 6.17%
CCOC(=O)CCn1cnc2onc(-c3ccccc3Cl)c2c1=O -12.8%
CCOc1ccccc1NC(=O)C1=C(C)Nc2ncnn2C1c1ccccn1 (configuration not stated) -0.191%
COc1ccc(C2=C(C)C(=O)N(Cc3ccc(C(=O)Nc4ccc(C)c(C)c4)cc3)S2(=O)=O)cc1 -5.18%
COc1cc(Cl)c(C)cc1NS(=O)(=O)c1c(C)nc2sccn2c1=O -0.797%
COC(=O)c1ccc(Nc2ncnc3c2cnn3-c2ccccc2)cc1 9.32%
COc1cc(NC(=O)CCc2c(C)nc3c4c(C)cc(C)nc4nn3c2C)cc(OC)c1 -1.58%
Cc1cc(C)cc(NC(=O)CCCn2nc(C)c3c(C)n(-c4ccccc4)nc3c2=O)c1 -2.68%
COc1ccc(NC(=O)CN(c2ccccc2OC)S(C)(=O)=O)c(OC)c1 -7.13%
CCOC(=O)C1(C)C=C(Nc2cccc(C)c2)C(=O)N1c1ccccc1 (configuration not stated) -11.1%
COc1cc(-c2nnc(SCC(=O)Oc3ccc(C)cc3C)o2)cc(OC)c1OC -2.63%
Cc1ccc(CNC(=O)c2nc(S(=O)(=O)Cc3ccc(C)cc3)ncc2Cl)cc1 -10.8%
CCOCN(C(=O)Cn1c(CC(C)C)nc2ccccc21)c1c(C)cccc1CC 2.08%
CC(C)c1ccc(NC(=O)C(NS(=O)(=O)c2ccc3c(c2)CCC(=O)N3)c2ccccc2)cc1 (configuration not stated) -13.5%
Cn1c(=O)cc(OCC(=O)N2CCN(c3ccc(F)cc3)CC2)c2ccccc21 -4.9%
COc1cc(OC)cc(-c2cc3nc(C)c(CCC(=O)Nc4ccc(F)c(Cl)c4)c(C)n3n2)c1 -0.486%
Cc1cc(C)cc(NC(=O)c2ncn(-c3ccccc3)n2)c1 -1.24%
Cc1c(Cl)cccc1NC(=O)C(C)N(c1ccccc1)S(C)(=O)=O (configuration not stated) -12.6%
CCc1ccc(NC(=O)N(Cc2cn(CC)c3ccccc23)C2CCCCC2)cc1 -6.86%
Cc1ccc(-c2cn3cccnc3n2)cc1NC(=O)Cc1ccccc1 -7.33%
O=S(=O)(c1ccccc1)c1nc(-c2ccccc2)oc1N1CCN(c2cccc(Cl)c2)CC1 -5.14%
CCc1ccc(NC(=O)COCc2cc(-c3ccc(F)cc3)on2)cc1 0.251%
O=C(CSCc1cnn(-c2ccccc2)c1-n1cccc1)NCc1ccccc1Br -4.15%
COc1ccc(Cc2nc3ccc(C(=O)NCCc4ccccc4)cc3o2)cc1 -3.04%
CCc1ccccc1-n1c2c(cc(-c3nc(-c4ccc(Cl)cc4)cs3)c1=O)C(=O)CC(C)(C)C2 1.87%
CC(=O)N1c2ccc(S(=O)(=O)NCC3CCC(C(=O)Nc4ccc(F)cc4)CC3)cc2CC1C (configuration not stated) -7.99%
CCOC(=O)c1c(C)[nH]c(C)c1S(=O)(=O)N1CCN(c2ccc(Cl)cc2)CC1 3.35%
COc1cccc(NC(=O)C2CCN(c3cc(C)nc4c(-c5ccc(Cl)cc5)c(C)nn34)CC2)c1 0.289%
O=C(COc1ccc(F)cc1)NC1CC(=O)N(c2ccc3c(c2)OCCO3)C1 (configuration not stated) -5.59%
COc1ccc(CNC(=O)c2ccc3c(c2)CCN3S(=O)(=O)c2ccc(Cl)cc2)cc1 -13.7%
CCOc1ccc(OCC)c(NS(=O)(=O)c2ccc3[nH]c(=O)ccc3c2)c1 -6.94%
COc1cc2nc(SCC(=O)Nc3cccc(C)c3)n3nc(CCn4c(C)nc5ccccc54)nc3c2cc1OC -21%
CC(NC(=O)C1=Cc2ccccc2OC1)c1ccccc1 (configuration not stated) -7.14%
CC(=O)Nc1ccc(NC(=O)Cn2c(=O)ccc3cc(S(=O)(=O)N4CCC(C)CC4)ccc32)cc1 -1.94%
CCC(C)NC(=O)c1sc2nc(C)c(C(=O)Nc3ccc(C)cc3C)c(-c3ccc(Br)cc3)c2c1N (configuration not stated) 0%
COc1cc(C2NC(=O)N(C)C3=C2C(=O)N(c2ccccc2)C3)ccc1O (configuration not stated) -0.651%
Cc1ccc2[nH]c(=O)c3cc(C(=O)N4CCN(c5ccccc5F)CC4)sc3c2c1 -1.39%
COc1ccc(-c2cnc(NCc3ccc(C)cc3)n2C)cc1 -19.9%
O=C(CSc1nc(-c2ccccc2)cc(=O)[nH]1)Nc1ccccc1F -7.15%
COc1ccccc1CNC(=O)c1nn(-c2ccc(C)cc2)c(=O)c2c1c1ccccc1n2C 7.96%
COc1ccc(CCNC(=O)CSc2nc3ccccc3nc2Cc2ccc(C)cc2)cc1OC 4.34%
Cc1cccc(CSc2ncc(Cl)c(C(=O)Nc3sc4c(c3C#N)CCCC4)n2)c1 0.881%
CCN(CC)c1nc2c(S(=O)(=O)c3ccc(C)cc3)nnn2c2ccsc12 -0.348%
COc1ccccc1NC(=O)CSc1oc(-c2cccs2)nc1S(=O)(=O)c1ccc(C)cc1 -12.6%
O=C(NCc1ccccc1)c1cccc(NC(=O)N2CCSc3ncccc32)c1 -0.345%
CCn1ccc2cc(S(=O)(=O)N3CCC(C(=O)NCc4ccc(OC(C)C)cc4)CC3)ccc21 -11.1%
O=C(Nc1nnc(S(=O)(=O)N2CCCC2)s1)c1ccccc1Cl 0%
Cc1ccccc1NC(=O)c1ccccc1NC(=O)c1ccccc1F 0.104%
O=C(CN1C(=O)COc2ccc(S(=O)(=O)N3CCCCC3)cc21)NCCc1ccc(Cl)cc1 -8.67%
CCCSc1nnc2c(n1)OC(CC)N(C(C)=O)c1ccccc1-2 (configuration not stated) -0.722%
CCOc1ccccc1CNC(=O)Cn1nc(C)c2nn(-c3ccc(Cl)cc3)c(C)c2c1=O 4.07%
COC(=O)COc1ccc(Oc2nc(NC(C)(C)C)nc(N3CCOCC3)n2)nn1 1.22%
COc1ccc(N2CCN(S(=O)(=O)c3c(C)nc4sc(C)cn4c3=O)CC2)cc1 7.38%
COc1ccc(Cc2nc3c4cnn(-c5ccccc5Br)c4ncn3n2)cc1 6.22%
CC1=C(c2ccc(C)c(C)c2)S(=O)(=O)N(Cc2ccc(C(=O)NCc3ccc(C)cc3)cc2)C1=O -4.6%
Cc1cccc(OCC(=O)NCc2ccc3c(c2)CCN3C(=O)c2ccccc2)c1 -5.75%
O=C(Cn1c(=O)oc2cc(S(=O)(=O)NCc3ccccc3)ccc21)NCc1ccc(F)cc1 -8.93%
COc1ccc(/C=C/C(=O)Nc2ccc(Cl)c(Cl)c2)cc1OC 6.8%
CCOc1ccc(NC(=O)c2cc(CN3CCCC3)on2)cc1 -5.11%
Cc1c(C(=O)NCc2ccc(F)cc2)sc2nc3n(c(=O)c12)CCC3 7.42%
COc1ccc(-c2ccc(=O)n(CC(=O)Nc3ccc(N(C)C)cc3)n2)cc1 -0.277%
CC(=O)Nc1ccc(NC(=O)Nc2sc3nc4n(c(=O)c3c2C)CCC(C)CC4)cc1 (configuration not stated) 0.981%
O=C(Cn1nc(C(F)(F)F)c2c1CCCC2)Nc1ccc(F)c(Cl)c1 -17.9%
CSc1ccc(C2c3c(oc4ccc(F)cc4c3=O)C(=O)N2c2ccc(C)cn2)cc1 (configuration not stated) -10.6%
CCOc1ccc2oc(=O)cc(CN3CCN(C(=O)c4ccc(Cl)cc4)CC3)c2c1 2.39%
CCCCc1nn2c(=O)cc(COC(=O)CNC(=O)c3ccccc3C)nc2s1 0.296%
Cc1c(NC(=O)c2cc3ccccc3o2)cccc1-c1nc2ccccc2o1 11%
COc1ccc(OC)c(NC(=O)c2ccc(-c3nc(COc4ccccc4)c(C)o3)cc2)c1 -1.49%
Cc1cccc(N(C)C(=O)C2CCN(S(=O)(=O)c3cccc4nonc34)CC2)c1 0.196%
Cc1ccc2nc(Nc3ccc(Br)cc3)nc(-c3ccccc3)c2c1 0.379%
Cc1ccc(C(C)C)c(OCCSc2nc(-c3cccs3)nc3cc(=O)[nH]n23)c1 11.4%
COc1ccc(OC)c(NC(=O)Cn2cc(C(=O)c3cccs3)c3ccccc32)c1 -1.11%
CCc1cccc(CC)c1NC(=O)Cc1csc(C)n1 1.82%
CCC(=O)N1CCc2cc(CNS(=O)(=O)c3ccc(Cl)s3)ccc21 -9.08%
Cc1cccc(CN2C(=O)c3ccccc3Sc3ccc(C(=O)NCCc4ccccc4)cc32)c1 -0.994%
Cc1cc(Nc2cccc(F)c2)n2nc(-c3ccco3)nc2n1 8.15%
Cc1ccc(C)c(N2CCN(C(=O)C3CCN(Cc4nc(-c5cccc(Cl)c5)oc4C)CC3)CC2)c1 -1.34%
NC(=O)C1(N2CCCCC2)CCN(C(=O)Nc2ccc(Cl)c(Cl)c2)CC1 -0.618%
COc1ccc(N2CCN(C(=O)c3cc4c(=O)n(Cc5cccs5)ccc4nc3C)CC2)cc1 0.0876%
Cc1cc(Cl)ccc1NC(=O)C1CCN(S(=O)(=O)c2ccc3[nH]c(=O)ccc3c2)CC1 -7.71%
COc1cccc(NC(=O)c2sc3nc(C)c(C(=O)Nc4ccc(C)cc4C)c(-c4ccc(Br)cc4)c3c2N)c1 -2.14%
COc1ccc(CNC(=O)c2cc3sccc3n2C)cc1 -3.78%
Cc1ccc2nc(SC(Cc3cc(Cl)ccc3Cl)C(=O)O)[nH]c2c1 (configuration not stated) -1.14%
Cc1cccc(Cn2c(=O)n(CCc3ccccc3)c(=O)c3sc4ccccc4c32)c1 2.16%
Cc1ccc(CCNC(=O)CCSCc2ccccc2F)cc1 14.1%
O=C(CCOc1ccccc1)N(Cc1cccnc1)c1nc2c(Cl)cccc2s1 -5.47%
CCOC(=O)c1cc(-c2ccccc2)nn1Cc1ccccc1 -8.04%
